Potency data for 5 compounds are collected here from PubChem BioAssay (NCATS).

Records with an inconclusive call do not appear. Calls come from the whole dose curve; as a rule, active = well fitted cell-killing curve with a large enough effect; inconclusive = small, poorly fitted or top-dose-only effect; inactive = flat fitted curve, though single readings scatter. Some compounds were tested as several samples or in several runs, with calls that do not always agree. The source holds more than one record for some entries. The other results are left out here. The source may hold further records. Values given together are repeated measurements (runs, samples, wells, individuals or studies). Brackets tell where a record comes from. A, B and so on number the origins entry by entry.
Potency is the fitted concentration of half-maximal effect.

The nature of this experiment: qHTS of pediatric cancer cell lines to identify multiple opportunities for drug repurposing: Primary screen for DAOY cells (AID 1347090). Note: nearly all actives have a fitted effect of over 55% in size. To be noted: DAOY medulloblastoma viability, CellTiter-Glo luminescence, 48 h; series mostly up to 46 µM. In outline:
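Eight- or eleven-point concentration series, 48 h treatment at 37 degrees C in growth media; readout CellTiter-Glo luminescence. Potency and efficacy were taken from the concentration-response curves.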
In general terms: Quantitative high-throughput screening tests each substance at several concentrations.
Turning to `O=C(NCC1CCCCN1)c1cc(OCC(F)(F)F)ccc1OCC(F)(F)F` (stereo not given), the Potency entry is “active: 11.8 µM [sample A] and inactive [sample B]”.

Turning to `COC(=O)C1=C(C)NC(C)=C(C(=O)OC(C)C)C1c1cccc2nonc12` (stereo not given), the Potency result is “active: 23.5 µM [sample A] and inactive [sample B]”.

With `CC1(C)CCC(C)(C)c2cc(NC(=O)c3ccc(C(=O)O)cc3)ccc21`, the Potency entry was “active: 18.7 µM [sample A] and inactive [sample B]”.

For the compound `Cc1cc2cc3c(C)cc(=O)oc3c(C)c2o1`, the Potency result was “inactive [sample A] and active: 23.5 µM [sample B]”.

For the compound `C=C(c1ccc(C(=O)O)cc1)c1cc2c(cc1C)C(C)(C)CCC2(C)C`, the Potency result was “inactive [sample A] and active: 26.6 µM [sample B]”.
